Hit rate of the full screen: of about 310,000 compounds, about 2,200 (0.71%) showed an effect of 50% or more. Effects have a minus sign here. Some of the results follow.
Molecular target: human ether-à-go-go-related gene (hERG) potassium channel (human, UniProt Q12809)
Assay: primary screen, population patch clamp on CHO cells stably expressing hERG

Chain of human ether-à-go-go-related gene (hERG) potassium channel (Q12809 whole entry, looked up): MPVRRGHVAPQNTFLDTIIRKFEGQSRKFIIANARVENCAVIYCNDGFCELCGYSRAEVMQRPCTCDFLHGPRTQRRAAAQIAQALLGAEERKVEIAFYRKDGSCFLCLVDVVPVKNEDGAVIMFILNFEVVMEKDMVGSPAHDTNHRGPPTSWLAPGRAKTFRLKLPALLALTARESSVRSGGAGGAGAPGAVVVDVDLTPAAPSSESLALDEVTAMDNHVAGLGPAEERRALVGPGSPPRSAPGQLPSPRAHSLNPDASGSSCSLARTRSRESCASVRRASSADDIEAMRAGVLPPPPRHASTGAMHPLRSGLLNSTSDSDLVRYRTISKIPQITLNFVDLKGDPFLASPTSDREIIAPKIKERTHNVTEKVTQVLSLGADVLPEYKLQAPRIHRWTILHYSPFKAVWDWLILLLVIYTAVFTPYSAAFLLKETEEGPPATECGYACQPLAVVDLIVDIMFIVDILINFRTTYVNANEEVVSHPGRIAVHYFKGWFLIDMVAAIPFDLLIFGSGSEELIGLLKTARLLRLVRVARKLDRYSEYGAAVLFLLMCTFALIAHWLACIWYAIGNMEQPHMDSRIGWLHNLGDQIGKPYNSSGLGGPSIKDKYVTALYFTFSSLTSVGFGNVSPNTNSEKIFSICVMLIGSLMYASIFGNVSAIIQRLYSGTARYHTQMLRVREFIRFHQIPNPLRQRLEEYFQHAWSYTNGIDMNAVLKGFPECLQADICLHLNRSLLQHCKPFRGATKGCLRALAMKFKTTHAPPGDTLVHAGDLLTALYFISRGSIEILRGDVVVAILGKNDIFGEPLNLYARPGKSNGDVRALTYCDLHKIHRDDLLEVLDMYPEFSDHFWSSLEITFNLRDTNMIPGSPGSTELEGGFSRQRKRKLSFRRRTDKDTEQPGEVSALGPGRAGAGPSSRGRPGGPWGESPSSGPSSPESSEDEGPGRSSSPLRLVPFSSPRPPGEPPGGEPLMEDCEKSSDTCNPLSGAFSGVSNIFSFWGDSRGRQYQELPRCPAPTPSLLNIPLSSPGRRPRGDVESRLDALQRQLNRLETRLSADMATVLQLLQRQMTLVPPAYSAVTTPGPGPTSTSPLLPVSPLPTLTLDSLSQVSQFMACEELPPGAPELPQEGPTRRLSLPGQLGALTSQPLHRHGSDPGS

SMILES | hERG current change (%, negative = inhibition) at 1uM [%]
Cc1ccc(S(=O)(=O)CCC(=O)Nc2nnc(-c3ccco3)o2)cc1 | 15.4
COc1ccc(C(=O)NNC(=O)c2ccccc2[N+](=O)[O-])cc1 | 16.9
COc1ccc(Cl)cc1NC(=O)CN1CCN(S(=O)(=O)N2CCCCC2)CC1 | 6.88
Cc1ccc(/C=N/NC(=O)c2cccnc2)o1 | 13.9
C/C(=C(\C#N)C(=O)NCc1ccccc1)N(C)C | 10.6
CC(C)C(=O)N1CCN(c2ccc([N+](=O)[O-])cc2Cl)CC1 | -5.34
Cc1cccc(C(=O)N2CCCC(N3CCN(Cc4ccc5c(c4)OCO5)CC3)C2)n1 (stereo not drawn) | -14.7
CCOc1ccc(S(=O)(=O)N2CCOCC2)cc1NC(=O)CN1C(=O)NC(CC)(c2ccccc2)C1=O (stereo not drawn) | -14.2
CCOC(=O)C1CCN(C(=O)C2CCC(=O)N(Cc3cccc(C(F)(F)F)c3)C2)CC1 (stereo not drawn) | 7.79
CCN(C(=O)c1ccc(N2CC3CC(C2)c2cccc(=O)n2C3)c(NC(=O)c2ccncc2)c1)c1cccc(C)c1 (stereo not drawn) | 12.9
O=C(Nc1ccc2c(c1)OCO2)C1CCN(c2ccc(S(=O)(=O)N3CCOCC3)cc2)CC1 | 8.98
N#Cc1nc(-c2ccccc2Cl)oc1NCc1ccco1 | 7.4
Cc1cc(NC(=O)c2cc(-c3cccs3)nc3ccccc23)no1 | 11.1
CCCn1c(SCC(=O)Nc2ccccc2CC)nnc1C(C)C | 8.92
O=c1[nH]c(=S)[nH]c(O)c1N=Nc1ccc(SC(F)F)cc1 | 17.2
CCOc1ccccc1NC(=O)N1CCCC1C(=O)NCc1cccs1 (stereo not drawn) | 15.4
CC(=O)Nc1ccccc1NC(=O)c1ccccc1-c1ccccc1 | 12.3
CC1(C)CC(=O)C2=C(C1)OC(N)=C(C#N)[C@@H]2c1ccccc1[N+](=O)[O-] | -1.91
Cc1[nH]c(=S)c(C#N)c(C)c1CCC#N | 13.2
CON(c1nc(Cl)nc(N(C)C)n1)S(=O)(=O)c1ccc(C)cc1 | 6.06
O=C(CSc1nnc(-c2ccccn2)n1Cc1ccccc1)N1CCOCC1 | 2.91
CC(C)OC(=O)CSc1nnc(COc2ccc([N+](=O)[O-])cc2)n1C | -34.8
CN(C)CCCNC(=O)c1cc(Br)ccc1O | 12.2

SMILES | hERG current change (%, negative = inhibition) at 1uM [%]
COc1ccc(S(=O)(=O)N2CCN(C(=O)C3CCCO3)CC2)cc1 (stereo not drawn) | 6
COC(=O)c1sccc1-n1cc(C#N)c(=O)n(C)c1=O | 17.7
COc1ccc(CCNC(=O)C2CCN(S(=O)(=O)c3cccc4nonc34)CC2)cc1OC | -3.79
CC(O)c1ccc2c(c1)OCCOCCN(C)CCOCCO2 (stereo not drawn) | 7.18
Cc1cc(Cl)cc(Br)c1OCCCCn1cncn1 | -0.515
CC(=O)N(Cc1ccccc1C)c1cccc(C)c1C | 19.6
CN(CC(=O)Nc1ccc(Cl)cc1)CC(=O)Nc1ccc(F)c(F)c1F | -1.62
COc1ccc2ccccc2c1/C=N/NC(=O)CC1(C)OCCCO1 | 11.6
COCCn1c(SCc2nc3ccccc3c(=O)[nH]2)nnc1-c1ccncc1 | 0.523
Cc1ccc(C)c(NS(=O)(=O)c2ccc(OCC(=O)N3CCOCC3)cc2)c1 | -1.75
CC(=O)c1cnc2nc(SCc3cccc(C)c3)nn2c1C | 1.09
O=C(CSc1nnc(-c2cnccn2)n1Cc1ccco1)c1ccc(Cl)c(Cl)c1 | -37.9
Cc1cccc(C2=N/C(=C\c3cccs3)C(=O)O2)c1 | 18.2
O=C(Nc1ccc(Cl)c(Cl)c1)C1CC(=O)N(c2ccc(Br)cc2)C1 (stereo not drawn) | 14.6
Cc1cc(NC(=O)CN2CCN(C/C=C/c3ccccc3)CC2)c([N+](=O)[O-])cc1C | 14
CCn1cc(CN2CCCC(C(=O)Nc3cccc(-c4cc5ccccc5[nH]4)c3)C2)c(C)n1 (stereo not drawn) | 7.6
Cc1ccc(S(=O)(=O)N(C)c2ccc(C(=O)NCC(c3ccco3)N(C)C)cc2)cc1 (stereo not drawn) | 9.63
CC(C)(C)C1CCC(=O)N(CCSc2ccccc2)CC1 (stereo not drawn) | -0.131
CCOC(=O)c1sc(=S)n(-c2cccc(OC)c2)c1N | -10.4
COc1ccc(-n2c(COc3cccc4ccccc34)nnc2SCC#N)cc1 | 2.57
CCN1CCN(c2ccc(N3CCN(S(=O)(=O)c4ccc(C)c([N+](=O)[O-])c4)CC3)nn2)CC1 | -12.5
CCCC(CCC)C(=O)Nc1c[nH]c(=O)[nH]c1=O | 8.89
